The data set concerns PSMA^+ PC3 PIP and PSMA^− PC3 flu xenografts. The experiment in a line: Small animal PET imaging. The conditions noted are these: for PET: PSMA+ PC3 PIP tumor uptake (in words): as early as 30 min post-injection. Type of data set: in vivo, NOD-SCID mice.

Experimental findings from patent US11078166B2, “Triazole conjugated ureas, thioureas, carbamates, and reversed carbamates for PSMA-targeted imaging agents and uses thereof” (THE JOHNS HOPKINS UNIVERSITY, priority 2015, dated 2021) are described below.

On to `O=C(O)CC[C@H](NC(=O)N[C@@H](CCCCNC(=O)CCCCCCC(=O)N[C@@H](CCCCNC(=O)CCc1cn(CC[18F])nn1)C(=O)O)C(=O)O)C(=O)O` [[^18F]YC-71], for which the “PET: PSMA+ PC3 PIP tumor uptake (in words)” value was “Intense PSMA^+ PC3 PIP tumor uptake”. Further, under “mouse, in vivo”, the “PET: binding to PSMA-negative PC3-flu tumor (in words)” value was “no significant binding”.
As to `O=C(O)CC[C@H](NC(=O)N[C@@H](CCCCNC(=O)CCc1cn(CC[18F])nn1)C(=O)O)C(=O)O` [[^18F]YC-88, 2-[3-(1-carboxy-5-{3-[1-(2-[^18F]fluoroethyl)-1H-1,2,3-triazol-yl]propanamido}pentyl)ureido]-pentanedioic acid], the “PET: PSMA+ PC3 PIP tumor uptake (in words)” value was “Intense PSMA^+ PC3 PIP tumor uptake”. Moreover, the “PET: uptake in normal tissues (in words)” value (mouse, in vivo) was “extremely low uptake”.
